Reference: PubChem BioAssay (NCI)
The source holds several records for some structures; these can differ, active in one and inactive in another.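 Assay: single dose, 48 h. Readout: percent growth (0 = no net growth; negative = cell death). Active: <10.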 A number of entries come with more than one value. This list holds those alone. There may be further records. This drug was run again and again over the years, at the concentration stated with the values; each value is one run. Counts like (3×) stand for listed records that agree.

Test system: UO-31 renal
Assay: NCI-60 one-dose screen, 48 h (100 = growth as untreated, 0 = no growth, -100 = all killed)

## COc1cccc2c1C(=O)c1c(O)c3c(c(O)c1C2=O)C[C@@](O)(C(=O)CO)C[C@@H]3OC1CC(N)C(O)C(C)O1 (stereo not given in full)
0.25 µM, runs of 2015
  growth: inactive: 78 (2×), 73.1 (2×), 77.1 (2×), 68.6 (3×), 72.7, 72.2, 79.6, 68.3, 69.4, 75.4, 87.3, 58.7, 77.4 (2×), 79.3, 82.6, 78.8 (3×), 78.3, 76.5, 76.6, 79.8 (2×), 76 (2×), 81.7, 65.8, 73.6, 64.4 (2×), 73.5, 67, 72.5, 74.4 (2×), 67.1, 67.3, 59.7, 75.9 (2×), 68.4, 83.4, 69.6, 67.4, 65.9 (2×), 70, 78.1, 87.7, 74.3, 60, 77.6, 67.9, 72.4, 76.9, 79.1, 80.9, 84.2, 78.5, 82.1, 78.6, 83.2, 83.8, 76.8, 85.2, 80.7, 74.9%
0.25 µM, runs of 2016
  growth: inactive: 81.9, 74.8, 67.3, 77.8, 76.3, 61.9 (2×), 65.9 (2×), 73.9, 69.7, 71.8 (2×), 68.3, 72.3, 76.7, 63.1, 73.3, 60.6, 67.4, 69.5 (3×), 72.2 (2×), 63.3, 67.9 (3×), 78.6, 69.6, 80.1, 70.3, 79.3, 61.2, 61.5, 68.2, 65.1, 59.9, 68.8 (2×), 61.4, 68.1, 57.8, 64.6, 64.3, 74.2, 75.9, 65.3, 76.5, 77.5, 67.1, 74.9, 72.1 (2×), 76.4, 76.9, 73.8 (2×), 69.4, 73.5, 76.1, 74.5, 66.1, 71.9, 68, 73.6, 70.8, 74.7, 76, 71.1, 65.8, 57.9, 62.5, 60, 60.2, 64.2%
0.25 µM, runs of 2017
  growth: inactive: 64.1, 64.7, 70.3 (2×), 72.9, 68.4, 73.7, 68, 69.6 (3×), 67.9, 72.3 (2×), 70.2 (4×), 74.5, 73.6, 70.6, 71.8 (2×), 76, 76.6 (2×), 69.3, 71.9 (2×), 74.1, 76.7, 71.2, 65 (2×), 67 (4×), 75.3, 67.7, 63.9, 66.4, 69.7, 76.8, 77.2, 73.8, 75.8, 74.4, 73.2, 62.4, 65.3, 69 (2×), 66.6, 78.2, 70.9, 62.6, 72, 74.8, 64.5, 65.7, 64.8%
0.25 µM, runs of 2018
  growth: inactive: 67.1, 69.6, 64.5, 66.8, 65.9, 64.1, 52.1, 58.8, 65.4 (2×), 64.8, 62.4, 69, 72.9, 75.3, 71.9, 73.8, 72.6, 60.8, 67.6, 56.5, 58.4, 69.7, 68.1, 72.7, 72.5 (2×), 70.6 (2×), 72.3, 73.9 (2×), 71.6, 74.2, 76.3, 75.7, 74.1, 75.1, 75.8, 77.8, 73, 71.8, 68.2 (2×), 68.7, 72.4, 73.3, 76.1, 64.7% (2×)
0.25 µM, runs of 2019
  growth: inactive: 62.1, 65.9, 74.5, 67.6 (4×), 70, 65.1, 71.1, 73.3, 73.5, 61.2, 62.5 (2×), 60.8 (3×), 57.8, 61.8, 63.7, 68.2, 73.2, 71.8, 68, 67.1 (2×), 61.4, 61, 58.1, 62.9, 61.7, 64, 68.6, 63, 64.6, 65, 69, 77.6, 68.8, 66.7, 70.8, 68.1%
0.25 µM, runs of 2020
  growth: inactive: 68.2, 69.4, 71 (2×), 70.8, 70.9, 67.5, 59.7, 63.9, 64.6, 67, 61.8, 64.9, 64.5, 75.1, 65.8, 66.6, 76.4, 76.3, 69.6, 72%
0.25 µM, runs of 2021
  growth: inactive: 73.5, 79.3, 71.2, 63.7, 64.4 (2×), 62.2, 62.9, 62.4, 64.2, 67, 67.1 (3×), 72.4 (2×), 67.4, 67.5, 66.7, 65.1, 64.6 (2×), 65.8, 66.4, 68.8, 69.5, 76.3, 61.1 (2×), 60.5, 70.6, 71, 66, 65, 69, 68.2, 69.4, 68.3, 71.6, 60, 67.3, 68.4, 68.7, 74.1, 63.4, 72.3%
0.25 µM, runs of 2022
  growth: inactive: 44.8, 47.7, 56.8, 67.8, 36.7, 64.8, 53.8, 65.6, 61.7, 69, 59.1, 63.8, 70.2, 62, 67.6, 69.6, 80.4, 81.9, 74.5, 82.6, 73.9, 86.4, 63.3, 65.4%
25 µM, runs of 1991
  growth: active: -37, -56.1, -64.8 (2×), -67.8, -59, -52.5, -65.5, -43.9, -66.1, -54.1, -44.2, -62.6, -68.6, -59.6, -53.3, -44, -64.7, -53.6%
25 µM, runs of 1992
  growth: active: -67.4, -61.1, -40.9, -32.7, -66.4, -66.9, -66.8, -55.5, -50.1, -32, -32.5, -57.1, -44.7, -11.9, -54.8, -64.1, -45.3, -14.9, -29.7, -51.4, -53.9, -60.3 (2×), -48.6, -47.2, -57, -56.8, -12.3, -38.1, -37.8, -10.8, -12.8, -47.5, -37.5, -62.4 (2×), -68.6, -68.7, -64.3, -46.7, -55.9, -18.9, -58.8, -70.3, -20, -56.4, -39.1, -10, -58.6, -61 (2×), -71.6, -67.3, -95.6, -65.3 (2×), -70.2, -72.9, -43.6, -37.1, -43.4, -65.5 (2×), -66.7, -69.9, -75.3, -86.7, -86.2, -95, -68.8, -60, -71.5, -49.7, -1.17, -31.9 (2×), -24.1, -59.7, -55.1, -13.9, -52.9, -45.2, -81, -72.3, -67.8, -61.6, -77, -54.7, -41, -44.9, -61.4, -60.8, -48.7, -75.9, -68.3, -56.9, -62.6, -48.9, -62, -73.1, -65.8, -79.8, -42, -88.6, -53.1, -27.3, -69.7, -65.4, -40.3, -48.1, -26.7, -25.3, -53.6, 2.12, -57.5, -49.8, -5.98, -51.9% and inactive: 19.7%
25 µM, runs of 1993
  growth: active: -39.1, -37.9 (2×), -47.4 (2×), -39.5, -41.2, -61.9, -56.2, -64.5, -53.8, -28.1, -63.4, -48.3, -48.4, -6.22, -18.3, -44.6, -57.1, -29.2, -40.9, -69.2, -59.2, -36.6, -34.1, -61.4, -49.2, -15.7, -50.9, -29.6, -52.2, -25.7, -45.7, -47.1, -67.5, -36.8, -62.5, -53.1, -58.2, -41.4, -34.4, 3.89, -50.1, -21.6, -57.5, -31.9, -37.8, -59%
25 µM, runs of 1994
  growth: active: -27.8, -5.05, -34.6, -52, -31.3, -46.1, -24.9, -32.6, -26.2, -27.7, -4.61, -16, -24.6, -42.8, -2.14, -24.2, -42.3, -34.1, -60.8, 5.79, -31, -20.7, -60.3, -35.1, -50.9, -57.2, -31.1, -49.2, -34.4, -31.8, -47.4, -48.4, -6.41% and inactive: 72.1%
25 µM, runs of 1995
  growth: active: -43.7, -21, -2.82, -12.2, -37.1, -56.6 (2×), -33.9, -35.1, -36.5, -56.7, -37.3, -38.1, -31.2, -46.7, -59.4, -60, -57.5, -59.8, -56.1, -26.3, -52.2, -45.1, -60.5, -42, -15.8, -32.5, -13.6, -31.4, -38.6, -40.2, -29.8, -62, -61.6, -69.3, -53.9, -55.3, -58.7, -39.3, -55.2, -56.2%
25 µM, runs of 1996
  growth: active: -32.9, -54.5, -54.6, -53.3, -53, -58.5, -47.8, -48.2, -75.7, -34.6, -49.1, -33, -66.5, -25.8, -26.3, -32.1, -48.7, -22.6, -40.4, -40.9, -53.9, -54.7, -23.4, -37.5, -27.6, -8.75, -36.6, -49.2, -37.2, -64.1, -59, -39.8, -20.4, -20.5, -38.1, -29.1, -59.6, -39.6, -43.4 (2×), -16.7, -28.7, -86.8, -47.7, -30.4, -42.6, -50.2, -57.2, -53.4, -52.2, -63.1, -44.5, -37.9, -63.6, -40.7% and inactive: 117%, 12.2%
25 µM, runs of 1997
  growth: active: -30.9, -55.9, -34.1, -34.5, -39.9, -53.9, -42.7, -24, -40.7, -42.1, -34.7, -18.7, -37.8, -43.9, -32, -41.9, -48.4, -40.9, -33.3, -57.4, -56.9, -27.8, -48, -9.28, 1.85, 0.787, 2.59, -31.1, -0.162, 3.11, -6.85, -9.33, -11.2, -5.84, -22.9, -4.46, -5.18, -12.5, -12.8, 0.165, -14.5, -13.1, 9.14, -52% and inactive: 10.4%, 10.2%, 13.6%
